According to the GPR68 mutational scans of Howard et al. (2025):
The least precise scores are not listed. Not listed are two conditions whose scores span a narrow range. Names with del lack the residues named; names with ins carry added residues between the positions named. For some assays here: The concentration of ogerin is not given here.

B1: GPR68, Q15743 (parent)
chain: MGNITADNSSMSCTIDHTIHQTLAPVVYVTVLVVGFPANCLSLYFGYLQIKARNELGVYLCNLTVADLFYICSLPFWLQYVLQHDNWSHGDLSCQVCGILLYENIYISVGFLCCISVDRYLAVAHPFRFHQFRTLKAAVGVSVVIWAKELLTSIYFLMHEEVIEDENQHRVCFEHYPIQAWQRAINYYRFLVGFLFPICLLLASYQGILRAVRRSHGTQKSRKDQIQRLVLSTVVIFLACFLPYHVLLLVRSVWEASCDFAKGVFNAYHFSLLLTSFNCVADPVLYCFVSETTHRDLARLRGACLAFLTCSRTGRAREAYPLGAPEASGKSGAQGEEPELLTKLHPAFQTPNSPGSGGFPTGRLA

Experiments:
[1] = variants of: B1; test: cAMP reporter score (Enrich2 score, wild type = 0); higher = more signal; HEK293T, FACS bins
[2] = variants of: B1; test: surface expression score (Enrich2 score, wild type = 0); higher = more signal; HEK293T, FACS bins

Row | Variant | cAMP reporter score ([1]; pH 5.5) | cAMP reporter score ([1]; pH 6) | cAMP reporter score ([1]; pH 6, modulator: ogerin) | cAMP reporter score ([1]; pH 6.5, modulator: ogerin) | surface expression score [2]
1 | E339_L340insGSG | -0.07 | 1.39 | 0.425 | 1.03 | 0.434
2 | L340_L341del | 0.569 | -0.094 | 0.314 | 0.541 | 0.199
3 | Q349_T350insGS | 0.499 | 0.572 | 0.847 | 0.228 | 0.232
4 | P346R | 1.07 | 0.197 | 0.196 | 0.371 | 0.151
5 | P346D | 0.66 | – | 0.545 | 0.793 | 0.956
6 | P346Q | 1.45 | -0.452 | 1.39 | 0.567 | 1.4
7 | P346K | 1.27 | – | 0.885 | – | 0.154
8 | P346S | 0.81 | -0.043 | 0.776 | -0.057 | 0.633
9 | P346E | 0.498 | 0.24 | 0.477 | 0.284 | 0.969
10 | P346I | 1.7 | -0.769 | 1.19 | 0.292 | 0.352
11 | P346L | 0.453 | -0.598 | -0.019 | 1.05 | 0.394
12 | P346Y | -0.646 | -0.764 | 0.434 | -0.636 | -0.749
13 | P346H | 0.783 | -0.305 | 0.267 | 0.548 | 0.438
14 | P346A | 0.428 | -0.369 | -0.298 | 0.017 | -0.041
15 | P346C | 0.505 | -1.41 | – | 0.142 | -0.137
16 | P346F | 0.428 | 0.524 | -0.606 | 0.24 | –

Row | Variant | cAMP reporter score ([1]; pH 5.5) | cAMP reporter score ([1]; pH 6) | cAMP reporter score ([1]; pH 6, modulator: ogerin) | cAMP reporter score ([1]; pH 6.5, modulator: ogerin) | surface expression score [2]
17 | P346M | 0.974 | -0.054 | 0.058 | 0.333 | -0.247
18 | P346W | -0.116 | -0.323 | -0.477 | -0.99 | -0.727
19 | P346N | 1.95 | 1.7 | 2.12 | 1.31 | 1.41
20 | P346G | 0.787 | – | 0.612 | 1.09 | 0.743
21 | P346V | -0.469 | -0.483 | -0.943 | -0.849 | -0.42
22 | T350_P351insGSG | 1.04 | – | 0.687 | -0.479 | 2.35
23 | A347_Q349del | 1.21 | 1.44 | 1.47 | 1.24 | 1.45
24 | H345M | 0.241 | -0.371 | 0.275 | 0.547 | -0.441
25 | H345W | 0.906 | 1.86 | 0.115 | 3.39 | -0.411
26 | H345F | 1.08 | 1.21 | 0.493 | – | –
27 | H345P | 1.01 | 0.463 | 1.16 | 0.877 | 1.43
28 | H345V | 0.536 | 0.431 | 0.384 | 0.53 | -0.026
29 | H345R | 1.11 | -0.593 | -0.406 | – | 0.644
30 | H345C | 0.545 | -0.798 | 0.411 | 0.978 | 0.768
31 | H345I | -0.062 | -0.993 | -0.148 | -0.479 | -0.036
32 | H345S | 2.09 | 3.29 | 0.763 | – | 1.73
